Experimental data reported in the supplement of paper PMC3334620.
In all, about 33,000 sequences were measured (“E-score (-0.5 to 0.5)”: median about -0.017, highest 2% from about 0.3 on). This is one part of the list.

Molecular target: T1, Sut1 (UniProt P53032)
T1 sequence: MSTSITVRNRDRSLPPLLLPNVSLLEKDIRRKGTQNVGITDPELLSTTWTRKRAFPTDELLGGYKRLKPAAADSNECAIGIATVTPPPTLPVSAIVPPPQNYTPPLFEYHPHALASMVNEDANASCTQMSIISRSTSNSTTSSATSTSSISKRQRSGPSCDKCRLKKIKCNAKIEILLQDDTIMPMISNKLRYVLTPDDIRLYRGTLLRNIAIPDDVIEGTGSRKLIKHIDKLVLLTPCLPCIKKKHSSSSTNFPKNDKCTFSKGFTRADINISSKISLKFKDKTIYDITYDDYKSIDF
Experiment: PBM E-score (8-mer binding enrichment) (E-score (-0.5 to 0.5)); higher = stronger / more preferred TF binding; most listed sequences are background and not binding sites
Conditions: protein concentration: 200 nM; construct: GST-full length
Outline: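 For each ungapped eight-base word taken together with its reverse complement, the Universal PBM Analysis Suite assigned an E-score. Binding data came from GST-tagged yeast transcription factors, applied at about 100-200 nM, on universal all-10-mer Agilent arrays made double-stranded by primer extension. Fluorescent anti-GST marked bound protein, and scans were normalised with masliner.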

Sequence	PBM E-score
CAACGACG	-0.0856
ATAAACGA	0.263
ATCTTGGA	-0.0178
ACTCTAGA	0.155
CGAGACAC	-0.249
AGGCCAAC	-0.136
GTTGTTTA	0.275
GCATGGAC	-0.112
CTGAATCA	-0.139
CAGACCGG	0.0208
ATTGATGC	0.0977
CGATCGAG	-0.0334
GCATAACA	0.21
CCGGCACA	-0.0265
ATATAAAA	0.205
AGAGGCCG	-0.291
ACGGTTTA	-0.0415
ACTTATCT	0.188
GTGAACGA	0.0573
GCTTTTAC	0.115
CACGAGAA	0.0179
CCATCGGA	0.255
CTCGTGAA	0.104
GACCTAGC	0.00279
GCGGTTAA	-0.0201

Sequence	PBM E-score
CGTCAGAC	-0.201
AGATTTTC	0.149
CACGGCAG	0.0407
AACGGCGC	-0.245
GTCTTTTA	-0.0185
CGTCCGAA	0.125
AACGTAAA	0.0903
ATAGGTCC	0.164
ATGATGTG	0.0779
AGCCCCTG	-0.4
ATAGAAGG	-0.146
AACCCTAA	0.116
GCAAGTGC	-0.324
CTGCGCTC	-0.221
AGTGCCCG	-0.052
ACGCGTCT	-0.115
GACGTCAA	0.0712
ATCTTTTA	0.0745
GCACGGGC	-0.262
CTGAATGA	0.137
AAAGCCGT	0.00934
CTACAGCC	-0.088
CTAGGAAC	-0.0827
AAAACTGC	0.0281
CGCATGCG	-0.167

Sequence	PBM E-score
ACGGTCGA	-0.135
CGTGGACA	-0.0891
AACCGTTG	0.0827
ACAGGGCC	-0.116
CCAGATCG	-0.204
CGCAACAG	-0.0306
CCCACTTA	0.109
ACATAGAA	0.0944
ATTTTCAA	0.131
GCTCCCAC	-0.109
CAAACTAC	-0.0611
AGCTGCCA	-0.2
CGTTCCGC	-0.0209
CTGGATTC	0.0502
CAGCCCTG	-0.233
ACTTCCTC	-0.183
CAGCGGAC	0.104
AAGACAAA	0.0437
ATACCTCA	0.0177
ATTACAAC	0.183
CTTTGATC	0.0392
CACTAAAG	0.0709
TAAAGGTA	0.0902
ATTGCTCA	9e-05
CAATCCGG	0.133

Sequence	PBM E-score
CAGCTACC	-0.224
AGATTGTG	-0.0591
ATTTGCTC	0.141
TCCCGTAA	-0.0821
CGACGCAG	-0.132
GCTGAAGA	-0.00656
AACTGCAC	0.0943
AACAGCTG	0.00427
AGAGAAAG	-0.0845
CCACTTCG	-0.0349
CAACTGTA	-0.0516
CCCGAGGA	-0.118
ATGTCAGG	-0.173
ATTGTTTC	0.214
TCTCGACA	-0.0229
CACCTAAC	0.0376
CTGGTTTA	-0.0882
GCTTTCGA	0.143
AGTACACA	0.0203
AAAGCCCC	-0.103
CTTGTCTC	0.076
CAAGATTA	0.132
CTCTGTGC	-0.122
CAAAAGAA	0.23
CCATGCTC	-0.234

Sequence	PBM E-score
CAAAGCAG	-0.0772
CTTTGATA	0.108
AGGAGGAG	-0.183
CGGTGTTC	0.0548
ACTTATAT	0.325
ATCTTTAA	0.292
ACAGGCGT	-0.298
AGGGGCGC	-0.264
AAACTTTC	0.105
AAGGAGCC	-0.0696
ACGTGAGG	-0.0314
ATTAATGA	0.267
ATCAGAGG	-0.121
AAACAATC	0.204
CGCTTGAA	0.0538
ATACATGG	0.155
CAATCCCA	-0.0642
GCTCACAC	-0.33
GGTACGAA	0.0616
AGGCGAAT	0.0276
ATGCTGGG	-0.281
GAGATGCA	-0.0694
AAGTCGGC	-0.133
AATTTACG	0.198
ACCAGTCG	0.0629

Sequence	PBM E-score
ATCGTGTC	0.00577
CAGAGAAA	-0.0232
AGCGTCCT	-0.288
CTCCTTAC	-0.0855
ACGAGGAT	-0.287
AGTTCCGC	0.131
GTTTTTCA	0.202
ACATTAAC	0.173
ATTCCCAA	0.158
CCCTCTTC	-0.349
GCGGGCCC	-0.175
AGATTCCG	0.296
GGTCCTTA	-0.0839
ACTGCTCA	0.0487
ATGGGATA	0.0485
ATCGCATA	0.13
GAAAACCA	0.0111
ATCCAAAT	0.0947
TGACTCAA	-0.108
ATTCAAGA	0.0929
GACGAACA	0.0226
AGAGAGCT	-0.212
CCAGGCCG	-0.135
CGCACATA	-0.189
CAAAAGGA	0.0153

Sequence	PBM E-score
AGTTGGGG	-0.00455
GTCCTCAC	-0.0725
AACGGCTA	-0.0515
ATAGGCCC	-0.29
AAGCAATA	0.0993
AAGTACAC	0.194
CTCGTCTA	-0.0182
CGCTAGTC	-0.189
GGCAGAAA	0.0918
ATGGAGTA	0.179
AGGAGAAC	-0.0513
CGTTGTAC	0.0351
ATCCAGCA	-0.081
GCGTATAC	0.0052
GGTCAGCA	0.0461
CCGCATAC	-0.0248
ATCCCATG	-0.214
ATGTGCTC	-0.0139
GACGCGGA	0.117
CAACGTCG	-0.102
CTCAAGGC	-0.0533
ATACACTC	0.257
